Results: paper PMC9911399, “Two distinct binding modes provide the RNA-binding protein RbFox with extraordinary sequence specificity”
Changes are numbered by the printed parent chain; changes in the protein carry UniProt numbers. The list shows a part of the results.

T1: RBFOX1 RRM (Homo sapiens, UniProt Q9NWB1 109-208)
T1 sequence: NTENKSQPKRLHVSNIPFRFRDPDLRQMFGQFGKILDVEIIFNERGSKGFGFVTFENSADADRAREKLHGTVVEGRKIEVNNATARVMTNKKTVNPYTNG

B1: UGUGAUG (DNA:RNA)
RNA: GGGAGACCGGAAUUCAGAUUGUCCUGUGAUGUUAAAUCCCGUCGUAGCCACCA
DNA 1: CAATCTGAATTCCGGTCTCCC
DNA 2: TGGTGGCTACGACGGGATT
B2: UAUGAAG (DNA:RNA)
RNA: B1 RNA with G26A, U30A
DNA 1: CAATCTGAATTCCGGTCTCCC
DNA 2: TGGTGGCTACGACGGGATT
B3: GCACCUC (DNA:RNA)
RNA: B1 RNA with U25G, G26C, U27A, G28C, A29C, G31C
DNA 1: CAATCTGAATTCCGGTCTCCC
DNA 2: TGGTGGCTACGACGGGATT
B4: CACACGG (DNA:RNA)
RNA: B1 RNA with U25C, G26A, U27C, G28A, A29C, U30G
DNA 1: CAATCTGAATTCCGGTCTCCC
DNA 2: TGGTGGCTACGACGGGATT
B5: UAACUAA (DNA:RNA)
RNA: B1 RNA with G26A, U27A, G28C, A29U, U30A, G31A
DNA 1: CAATCTGAATTCCGGTCTCCC
DNA 2: TGGTGGCTACGACGGGATT
B6: CUUACCU (DNA:RNA)
RNA: B1 RNA with U25C, G26U, G28A, A29C, U30C, G31U
DNA 1: CAATCTGAATTCCGGTCTCCC
DNA 2: TGGTGGCTACGACGGGATT
B7: AUGUAAC (DNA:RNA)
RNA: B1 RNA with U25A, G26U, U27G, G28U, U30A, G31C
DNA 1: CAATCTGAATTCCGGTCTCCC
DNA 2: TGGTGGCTACGACGGGATT
B8: GUGUUUA (DNA:RNA)
RNA: B1 RNA with U25G, G26U, U27G, G28U, A29U, G31A
DNA 1: CAATCTGAATTCCGGTCTCCC
DNA 2: TGGTGGCTACGACGGGATT
B9: UAUUUGA (DNA:RNA)
RNA: B1 RNA with G26A, G28U, A29U, U30G, G31A
DNA 1: CAATCTGAATTCCGGTCTCCC
DNA 2: TGGTGGCTACGACGGGATT
B10: UAGCGUC (DNA:RNA)
RNA: B1 RNA with G26A, U27G, G28C, A29G, G31C
DNA 1: CAATCTGAATTCCGGTCTCCC
DNA 2: TGGTGGCTACGACGGGATT
B11: GGCCAGC (DNA:RNA)
RNA: B1 RNA with U25G, U27C, G28C, U30G, G31C
DNA 1: CAATCTGAATTCCGGTCTCCC
DNA 2: TGGTGGCTACGACGGGATT
B12: GCCAUCC (DNA:RNA)
RNA: GGGAGACCGGAAUUCAGAUUGUCCGCCAUCCUUAAAUCCCGUCGUAGCCACCA
DNA 1: CAATCTGAATTCCGGTCTCCC
DNA 2: TGGTGGCTACGACGGGATT
B13: CUGAGCG (DNA:RNA)
RNA: B12 RNA with G25C, C26U, C27G, U29G, C31G
DNA 1: CAATCTGAATTCCGGTCTCCC
DNA 2: TGGTGGCTACGACGGGATT
B14: CGCGCCC (DNA:RNA)
RNA: B12 RNA with G25C, C26G, A28G, U29C
DNA 1: CAATCTGAATTCCGGTCTCCC
DNA 2: TGGTGGCTACGACGGGATT
B15: CGCCAAG (DNA:RNA)
RNA: B1 RNA with U25C, U27C, G28C, U30A
DNA 1: CAATCTGAATTCCGGTCTCCC
DNA 2: TGGTGGCTACGACGGGATT
B16: GUAUGAC (DNA:RNA)
RNA: B12 RNA with C26U, C27A, A28U, U29G, C30A
DNA 1: CAATCTGAATTCCGGTCTCCC
DNA 2: TGGTGGCTACGACGGGATT
B17: GCUGAGU (DNA:RNA)
RNA: B1 RNA with U25G, G26C, U30G, G31U
DNA 1: CAATCTGAATTCCGGTCTCCC
DNA 2: TGGTGGCTACGACGGGATT
B18: AGAAGGA (DNA:RNA)
RNA: B12 RNA with G25A, C26G, C27A, U29G, C30G, C31A
DNA 1: CAATCTGAATTCCGGTCTCCC
DNA 2: TGGTGGCTACGACGGGATT
B19: ACAUACC (DNA:RNA)
RNA: B12 RNA with G25A, C27A, A28U, U29A
DNA 1: CAATCTGAATTCCGGTCTCCC
DNA 2: TGGTGGCTACGACGGGATT
B20: AUAGCAG (DNA:RNA)
RNA: B1 RNA with U25A, G26U, U27A, A29C, U30A
DNA 1: CAATCTGAATTCCGGTCTCCC
DNA 2: TGGTGGCTACGACGGGATT
B21: GCAUUUU (DNA:RNA)
RNA: B12 RNA with C27A, A28U, C30U, C31U
DNA 1: CAATCTGAATTCCGGTCTCCC
DNA 2: TGGTGGCTACGACGGGATT
B22: AGGGCAU (DNA:RNA)
RNA: B1 RNA with U25A, U27G, A29C, U30A, G31U
DNA 1: CAATCTGAATTCCGGTCTCCC
DNA 2: TGGTGGCTACGACGGGATT
B23: GACAUGA (DNA:RNA)
RNA: B12 RNA with C26A, C30G, C31A
DNA 1: CAATCTGAATTCCGGTCTCCC
DNA 2: TGGTGGCTACGACGGGATT
B24: CCUAAGU (DNA:RNA)
RNA: B12 RNA with G25C, C27U, U29A, C30G, C31U
DNA 1: CAATCTGAATTCCGGTCTCCC
DNA 2: TGGTGGCTACGACGGGATT
B25: AUCUCGC (DNA:RNA)
RNA: B12 RNA with G25A, C26U, A28U, U29C, C30G
DNA 1: CAATCTGAATTCCGGTCTCCC
DNA 2: TGGTGGCTACGACGGGATT
B26: CUCUCCA (DNA:RNA)
RNA: B12 RNA with G25C, C26U, A28U, U29C, C31A
DNA 1: CAATCTGAATTCCGGTCTCCC
DNA 2: TGGTGGCTACGACGGGATT
B27: UUCUUCU (DNA:RNA)
RNA: B12 RNA with G25U, C26U, A28U, C31U
DNA 1: CAATCTGAATTCCGGTCTCCC
DNA 2: TGGTGGCTACGACGGGATT
B28: GGCAGUC (DNA:RNA)
RNA: B12 RNA with C26G, U29G, C30U
DNA 1: CAATCTGAATTCCGGTCTCCC
DNA 2: TGGTGGCTACGACGGGATT
B29: CACAAGU (DNA:RNA)
RNA: B12 RNA with G25C, C26A, U29A, C30G, C31U
DNA 1: CAATCTGAATTCCGGTCTCCC
DNA 2: TGGTGGCTACGACGGGATT
B30: AGCUCCG (DNA:RNA)
RNA: B12 RNA with G25A, C26G, A28U, U29C, C31G
DNA 1: CAATCTGAATTCCGGTCTCCC
DNA 2: TGGTGGCTACGACGGGATT
B31: CUGCUCA (DNA:RNA)
RNA: B12 RNA with G25C, C26U, C27G, A28C, C31A
DNA 1: CAATCTGAATTCCGGTCTCCC
DNA 2: TGGTGGCTACGACGGGATT

molecular target: T1, RBFOX1 RRM; assay: EMSA; HiTS-Eq, 1 nM pool, 10 min; buffer printed only for the single-RNA assays: 10 mM Tris pH 7.5, 150 mM NaCl, 3.4 mM EDTA, 0.001% NP-40, 30 C; conditions: tags: His6 N-terminal (pET28a); label: 5' 32P
How it was run: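 Purified wild-type or mutant RbFox RRM at increasing concentrations was equilibrated with 1 nM of 5′-radiolabelled RNA carrying 7 randomized nucleotides for 10 min in 50 µL. Unbound RNA was separated by 8% native PAGE and sequenced. Relative association constants came from read-count changes of each RNA species compared with the control reaction, normalised to the cognate motif.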

| Binder | binding signal |
| --- | --- |
| B1 | 0.0303 KA relative to UGCAUGU |
| B2 | 0.0167 KA relative to UGCAUGU |
| B3 | 0.0127 KA relative to UGCAUGU |
| B4 | 0.00433 KA relative to UGCAUGU |
| B5 | 0.00462 KA relative to UGCAUGU |
| B6 | 0.00249 KA relative to UGCAUGU |
| B7 | 0.0041 KA relative to UGCAUGU |
| B8 | 0.00869 KA relative to UGCAUGU |
| B9 | 0.0208 KA relative to UGCAUGU |
| B10 | 0.0144 KA relative to UGCAUGU |
| B11 | 0.00861 KA relative to UGCAUGU |
| B12 | 0.00701 KA relative to UGCAUGU |
| B13 | 0.0193 KA relative to UGCAUGU |
| B14 | 0.00766 KA relative to UGCAUGU |
| B15 | 0.00625 KA relative to UGCAUGU |
| B16 | 0.0127 KA relative to UGCAUGU |

| Binder | binding signal |
| --- | --- |
| B17 | 0.0202 KA relative to UGCAUGU |
| B18 | 0.00514 KA relative to UGCAUGU |
| B19 | 0.000302 KA relative to UGCAUGU |
| B20 | 0.00562 KA relative to UGCAUGU |
| B21 | 0.0088 KA relative to UGCAUGU |
| B22 | 0.0225 KA relative to UGCAUGU |
| B23 | 0.0171 KA relative to UGCAUGU |
| B24 | 0.00428 KA relative to UGCAUGU |
| B25 | 0.0118 KA relative to UGCAUGU |
| B26 | 0.000929 KA relative to UGCAUGU |
| B27 | 0.0107 KA relative to UGCAUGU |
| B28 | 0.0117 KA relative to UGCAUGU |
| B29 | 0.00182 KA relative to UGCAUGU |
| B30 | 0.00867 KA relative to UGCAUGU |
| B31 | 0.0126 KA relative to UGCAUGU |
